Measurements published in paper PMC9911399, “Two distinct binding modes provide the RNA-binding protein RbFox with extraordinary sequence specificity”.
Substitutions are numbered along the chain they refer to; changes in the protein carry UniProt numbers. Some of the results follow.

B1: CCUCACA (DNA:RNA)
RNA: GGGAGACCGGAAUUCAGAUUGUCCCCUCACAUUAAAUCCCGUCGUAGCCACCA
DNA 1: CAATCTGAATTCCGGTCTCCC
DNA 2: TGGTGGCTACGACGGGATT
B2: UCACGGA (DNA:RNA)
RNA: B1 RNA with C25U, U27A, A29G, C30G
DNA 1: CAATCTGAATTCCGGTCTCCC
DNA 2: TGGTGGCTACGACGGGATT
B3: ACGCCCU (DNA:RNA)
RNA: B1 RNA with C25A, U27G, A29C, A31U
DNA 1: CAATCTGAATTCCGGTCTCCC
DNA 2: TGGTGGCTACGACGGGATT
B4: AAGGGAC (DNA:RNA)
RNA: GGGAGACCGGAAUUCAGAUUGUCCAAGGGACUUAAAUCCCGUCGUAGCCACCA
DNA 1: CAATCTGAATTCCGGTCTCCC
DNA 2: TGGTGGCTACGACGGGATT
B5: AGGUAUU (DNA:RNA)
RNA: B4 RNA with A26G, G28U, G29A, A30U, C31U
DNA 1: CAATCTGAATTCCGGTCTCCC
DNA 2: TGGTGGCTACGACGGGATT
B6: UACAUGU (DNA:RNA)
RNA: B4 RNA with A25U, G27C, G28A, G29U, A30G, C31U
DNA 1: CAATCTGAATTCCGGTCTCCC
DNA 2: TGGTGGCTACGACGGGATT
B7: CGUAGUG (DNA:RNA)
RNA: B1 RNA with C26G, C28A, A29G, C30U, A31G
DNA 1: CAATCTGAATTCCGGTCTCCC
DNA 2: TGGTGGCTACGACGGGATT
B8: GGACGUG (DNA:RNA)
RNA: B4 RNA with A25G, A26G, G27A, G28C, A30U, C31G
DNA 1: CAATCTGAATTCCGGTCTCCC
DNA 2: TGGTGGCTACGACGGGATT
B9: CAUCCCC (DNA:RNA)
RNA: B1 RNA with C26A, A29C, A31C
DNA 1: CAATCTGAATTCCGGTCTCCC
DNA 2: TGGTGGCTACGACGGGATT
B10: GUUGACU (DNA:RNA)
RNA: B1 RNA with C25G, C26U, C28G, A31U
DNA 1: CAATCTGAATTCCGGTCTCCC
DNA 2: TGGTGGCTACGACGGGATT
B11: CUUCAUA (DNA:RNA)
RNA: B1 RNA with C26U, C30U
DNA 1: CAATCTGAATTCCGGTCTCCC
DNA 2: TGGTGGCTACGACGGGATT
B12: GGGCUCA (DNA:RNA)
RNA: B1 RNA with C25G, C26G, U27G, A29U
DNA 1: CAATCTGAATTCCGGTCTCCC
DNA 2: TGGTGGCTACGACGGGATT
B13: UGCCUGC (DNA:RNA)
RNA: B4 RNA with A25U, A26G, G27C, G28C, G29U, A30G
DNA 1: CAATCTGAATTCCGGTCTCCC
DNA 2: TGGTGGCTACGACGGGATT
B14: AGCAGCA (DNA:RNA)
RNA: B4 RNA with A26G, G27C, G28A, A30C, C31A
DNA 1: CAATCTGAATTCCGGTCTCCC
DNA 2: TGGTGGCTACGACGGGATT
B15: AUGAUAU (DNA:RNA)
RNA: B4 RNA with A26U, G28A, G29U, C31U
DNA 1: CAATCTGAATTCCGGTCTCCC
DNA 2: TGGTGGCTACGACGGGATT
B16: UUCCAAG (DNA:RNA)
RNA: B1 RNA with C25U, C26U, U27C, C30A, A31G
DNA 1: CAATCTGAATTCCGGTCTCCC
DNA 2: TGGTGGCTACGACGGGATT
B17: AGGUCUU (DNA:RNA)
RNA: B4 RNA with A26G, G28U, G29C, A30U, C31U
DNA 1: CAATCTGAATTCCGGTCTCCC
DNA 2: TGGTGGCTACGACGGGATT
B18: UUGGUUC (DNA:RNA)
RNA: B4 RNA with A25U, A26U, G29U, A30U
DNA 1: CAATCTGAATTCCGGTCTCCC
DNA 2: TGGTGGCTACGACGGGATT
B19: CCCCCCG (DNA:RNA)
RNA: B1 RNA with U27C, A29C, A31G
DNA 1: CAATCTGAATTCCGGTCTCCC
DNA 2: TGGTGGCTACGACGGGATT
B20: CUGUCAA (DNA:RNA)
RNA: B4 RNA with A25C, A26U, G28U, G29C, C31A
DNA 1: CAATCTGAATTCCGGTCTCCC
DNA 2: TGGTGGCTACGACGGGATT

target: T1, RBFOX1 RRM RbFoxmut (Fox-RRM*) (Homo sapiens, UniProt Q9NWB1 109-208, R118D;E147R;N151S;E152T); assay: EMSA; HiTS-Eq, 1 nM pool, 10 min; buffer printed only for the single-RNA assays: 10 mM Tris pH 7.5, 150 mM NaCl, 3.4 mM EDTA, 0.001% NP-40, 30 C; conditions: tags: His6 N-terminal (pET28a); label: 5' 32P
T1 sequence: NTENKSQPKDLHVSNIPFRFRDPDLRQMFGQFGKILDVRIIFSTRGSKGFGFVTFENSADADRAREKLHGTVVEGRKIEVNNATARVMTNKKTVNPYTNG
Procedure, shortened: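 A pool of RNA with 7 randomized nucleotides, 5′-radiolabelled and with DNA-annealed flanks, was equilibrated at 1 nM for 10 min in 50 µL with purified RbFox RRM, wild type or mutant, across increasing protein concentrations. Free RNA was separated by 8% native PAGE, excised, reverse-transcribed, barcoded by PCR and sequenced. Relative association constants were obtained from read-count changes of each RNA species versus the control reaction and normalised to the cognate motif.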

Binder	binding signal
B1	0.108 KA relative to UGCAUGU
B2	0.0652 KA relative to UGCAUGU
B3	0.0755 KA relative to UGCAUGU
B4	0.0733 KA relative to UGCAUGU
B5	0.106 KA relative to UGCAUGU
B6	0.0896 KA relative to UGCAUGU
B7	0.147 KA relative to UGCAUGU
B8	0.162 KA relative to UGCAUGU
B9	0.0968 KA relative to UGCAUGU
B10	0.07 KA relative to UGCAUGU
B11	0.153 KA relative to UGCAUGU
B12	0.113 KA relative to UGCAUGU
B13	0.153 KA relative to UGCAUGU
B14	0.14 KA relative to UGCAUGU
B15	0.126 KA relative to UGCAUGU
B16	0.0952 KA relative to UGCAUGU
B17	0.0679 KA relative to UGCAUGU
B18	0.21 KA relative to UGCAUGU
B19	0.104 KA relative to UGCAUGU
B20	0.0918 KA relative to UGCAUGU
